Source: the supplement of paper PMC7826260
The list shows a part of the results. Each Rep nickase domain was tested in vitro on the same pool of single strands (3 µM enzyme, 1 h, 37 °C); shown is the middle of each 90-letter strand. The score is log2 (uncut reads / reads without enzyme); the lower, the more was cut; hits are not called. The scaling is to total reads; where an enzyme cuts many sequences, the uncut ones exceed 0.

What follows are sequences tested on T1, Rep nickase domain of chickpea chlorotic dwarf virus (assay: uncleaved DNA left, log2 of reads against the no-enzyme library (log2 ratio); higher = less cleavage (more negative = more Rep cleavage of the k-mer); sequences stand for … in CTCGTCCG…ACCGGAGA).
T1 sequence (Rep 1-124, printed without the tag): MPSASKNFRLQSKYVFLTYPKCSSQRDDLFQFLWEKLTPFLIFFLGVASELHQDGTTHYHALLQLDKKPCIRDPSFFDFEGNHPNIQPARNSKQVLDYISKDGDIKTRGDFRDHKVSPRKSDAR
Experimental: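 A pool of 90-nt single-stranded DNAs with seven random bases just before the constant AC of the nick site (name = the seven bases) was cut by 3 µM recombinant His6-SUMO-tagged Rep nickase domain (300 nM DNA, 50 mM HEPES pH 8.0, 50 mM NaCl, 1 mM MnCl2, 1 h, 37 °C, three replicates). Uncut DNA was amplified and sequenced.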
With CGGTTTT the “uncleaved DNA left (log2)” value was -0.226. CAGCTGT was tested, and the “uncleaved DNA left (log2)” value was 1.49. With TGAGGAG the “uncleaved DNA left (log2)” value was 0.85. For TGTCTAG, the “uncleaved DNA left (log2)” value was -0.825. For AGAGGTA, the “uncleaved DNA left (log2)” value was 0.874. In the case of ACTTCGG, the “uncleaved DNA left (log2)” value is reported as 0.113. With CGTGCCG the “uncleaved DNA left (log2)” value was -0.478. With GGGCCCG the “uncleaved DNA left (log2)” value was 1.26. For TGCCCTA, the “uncleaved DNA left (log2)” value was 0.0698. For ACATGTG, the “uncleaved DNA left (log2)” value was 0.863. For ACGCAGC, the “uncleaved DNA left (log2)” value was -0.479. In the case of CCCTGTG, the “uncleaved DNA left (log2)” value is reported as -0.112. For GCTAAAA, the “uncleaved DNA left (log2)” value was 0.609. In the case of CTACCAG, the “uncleaved DNA left (log2)” value is reported as -1.58. AAAGCGA was tested, and the “uncleaved DNA left (log2)” value was -0.175. For CCGAGAT, the “uncleaved DNA left (log2)” value was 1.24. In the case of AGGCCCG, the “uncleaved DNA left (log2)” value is reported as 1.19. For TCTAAAG, the “uncleaved DNA left (log2)” value was -0.697. With GAGCCAG the “uncleaved DNA left (log2)” value was 0.353. In the case of TGGGATC, the “uncleaved DNA left (log2)” value is reported as 1.71. For GTTTTCG, the “uncleaved DNA left (log2)” value was -0.392. With TTGTCGC the “uncleaved DNA left (log2)” value was -0.514. With GGATTTC the “uncleaved DNA left (log2)” value was 1.14. CATAACG was tested, and the “uncleaved DNA left (log2)” value was -0.00571. In the case of GTCAAGC, the “uncleaved DNA left (log2)” value is reported as 0.802. In the case of AGCCTAG, the “uncleaved DNA left (log2)” value is reported as -0.072. In the case of GGGTGCT, the “uncleaved DNA left (log2)” value is reported as 1.63. With CAAAGAC the “uncleaved DNA left (log2)” value was 0.101. For GTGATTG, the “uncleaved DNA left (log2)” value was 0.699. For CAGCGGG, the “uncleaved DNA left (log2)” value was -0.152. With GGATGAC the “uncleaved DNA left (log2)” value was 1.92. In the case of TGTCATG, the “uncleaved DNA left (log2)” value is reported as -0.511. For GCTGCCC, the “uncleaved DNA left (log2)” value was 0.48. In the case of CGTTCGC, the “uncleaved DNA left (log2)” value is reported as -0.611. For ATTCTAC, the “uncleaved DNA left (log2)” value was -2.36. With TTACCGT the “uncleaved DNA left (log2)” value was -2.01. With CACAAAA the “uncleaved DNA left (log2)” value was -0.464. TCCTAAT was tested, and the “uncleaved DNA left (log2)” value was -0.994. In the case of TGTCTCT, the “uncleaved DNA left (log2)” value is reported as -0.891. For CAGCACA, the “uncleaved DNA left (log2)” value was -1.88.
